A number of entries come with more than one value. The other results are left out here. The source may hold further records. Results that share an entry are repeats (runs, samples, wells, individuals or studies). Counts like (3×) give the number of equal values in this list.
Tested on: 521955-158-R7-J2-PDC spheroids, viability % test/control
Assay: Anticancer human tumor 521955-158-R7-J2-PDC patient-derived pancreatic carcinoma cell line growth inhibition [TAK]
Details: stronger effect = lower value, spheroids with HUVEC and MSC
Source text: Combinatorial screen of targeted agents with TAK-243 and ipatasertib in multi-cell type tumor spheroids
A high-throughput screen of multi-cell type tumor spheroids was designed to identify active combinations of targeted small molecules and TAK-243 or ipatasertib. Complex spheroids include a stromal component modeled by human endothelial cells (HUVEC) and fibroblasts modeled by human mesenchymal stem cells (MSCs). The concentration ranges selected for each drug and investigational agent were based upon clinically achievable concentrations if the clinical Cmax of the agent was known.
Compounds. The drugs and investigational agents: TAK-243 (785004), ipatasertib (767898), everolimus (733504), selumetinib (741078), bortezomib (756655), trametinib (758246), ixazomib (758254), vemurafenib (761431), dabrafenib (764134), sapanisertib (764658), alpelisib (765974), and copanlisib (816437), were obtained from the National Cancer Institute (NCI) Developmental Therapeutics Program Chemical Repository. The FDA-approved anticancer drug set is available from the NCI Developmental Therapeutics Program. […] The stock solutions were prepared in dimethyl sulfoxide (DMSO, Sigma-Aldrich, St. Louis, MO, cat. D2650) at 800-fold the tested concentration and stored at -70 degrees C prior to their use. All drugs and investigational agents were tested over a range starting from a high concentration at or near the clinical Cmax and decreasing in half-log increments. If the clinical Cmax for an agent had not been determined, the highest concentration tested was 10 microM.
NCI60 Cell Culture. NCI60 cell lines were obtained from the NCI Developmental Therapeutics Program Tumor Repository. For each lot of cells, the Repository performed Applied Biosystems AmpFLSTR Identifiler testing with PCR amplification to confirm consistency with the published Identifier STR profile for each cell line. Cells were kept in continuous culture for no more than 20 passages. The optimal seeding densities for each of the cell lines at each time point assessed were determined prior to performing the concentration response studies. Briefly, the NCI60 human tumor lines were grown as monolayers in RPMI 1640 medium supplemented with 10% FBS and 2 mmol/L L-glutamine.
An additional 2 lines were from the NCI60 cell line panel including melanomas, MALME-3M and SK-MEL-2. Pooled donor human umbilical vein endothelial cells (HUVEC, Lonza, cat. CC-2519) and human mesenchymal stem cells (hMSC, Lonza, cat. PT-2501) were purchased from Lonza (Walkersville, MD). […]
For the pre-screen, cell seeding densities were determined from a titration spanning the range from 5,000 to 313 cells per well. […]
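Note: spheroids exposed to compound for 7 days before readout; 100% = DMSO vehicle control wells.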

SMILES: CC(C)NCC(C(=O)N1CCN(c2ncnc3c2C(C)CC3O)CC1)c1ccc(Cl)cc1 (centres undefined)
- viability, T/C (compound alone 0.3 µM): 92.9, 81.5, 102, 112, 105, 66.1, 72.5, 87.5, 88.8, 93.8%
- viability, T/C (compound alone 0.949 µM): 85.7, 115 (2×), 97.2, 96.3, 89.8, 73.7, 121, 110, 89.2%
- viability, T/C (compound alone 3 µM): 84, 97, 92.8, 110, 101, 72.4, 68.8, 106, 84.9, 100%
- viability, T/C (compound alone 9.49 µM): 93.1, 91.6, 109, 120, 90.2, 81.4, 74.8, 98.6, 107, 97.6%

Reference: PubChem BioAssay AID2060351 (Molecular Pharmacology Branch, DTP, NCI, 2025)
